Test results as given in the supplement of paper PMC4967469.
pIC50: −log10 of the molar value. Lines with a small IC50 respond at low doses; a fit beyond the top or the lowest dose is shown as a bound at that dose. AUC is the area under the same curve over the 256-fold range up to the top dose, as a fraction; it is 1 without any effect and falls as sensitivity rises. For some assays here: A top dose marked as inferred was derived from the fitted curves, not read from the paper. For some assays here: Drugs with an entry number were screened twice under separate entries, and the two screens often disagree.

Legend:
Test in all cases: Viability of human cancer cell lines after 72 h of drug (GDSC screen)
Thapsigargin = compound: C/C=C(/C)C(=O)O[C@H]1C(C)=C2[C@H]([C@@H]1OC(=O)CCCCCCC)[C@@](C)(OC(C)=O)C[C@H](OC(=O)CCC)[C@@]1(O)[C@H]2OC(=O)[C@@]1(C)O [Thapsigargin]; conditions: top dose 0.512 µM; top dose inferred
Experimental: (§1)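 Human cancer cell lines in 384-well plates, medium with 10% serum, drug for 72 h over a 256-fold dose range (nine 2-fold or five 4-fold steps up to the top dose). Adherent lines were fixed and stained with the nucleic acid dye Syto60, suspension lines read with resazurin; signal relative to control wells, capped at 0 and 100%. One two-parameter sigmoid per drug and line, fitted in a mixed model over all curves with the slope shared within a line.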

QL-X-138 = compound: C=CC(=O)Nc1cc(-n2c(=O)ccc3cnc4ccc(-c5cn[nH]c5)cc4c32)ccc1C [QL-X-138]; conditions: top dose 10.24 µM; top dose inferred
Experimental: as §1

GSK269962A = compound: CCn1c(-c2nonc2N)nc2cnc(Oc3cccc(NC(=O)c4ccc(OCCN5CCOCC5)cc4)c3)cc21 [GSK269962A]; conditions: top dose inferred
Experimental: as §1

MPS-1-IN-1 = compound: COc1cc(N2CCC(O)CC2)ccc1Nc1cc(Nc2ccccc2S(=O)(=O)C(C)C)c2cc[nH]c2n1 [MPS-1-IN-1]; conditions: top dose 20 µM; top dose inferred
Experimental: as §1

(5Z)-7-Oxozeaenol = compound: COc1cc(O)c2c(c1)/C=C/C[C@H](O)[C@H](O)C(=O)/C=C\C[C@H](C)OC2=O [(5Z)-7-Oxozeaenol]; conditions: top dose 10 µM; top dose inferred
Experimental: as §1

CP466722 = compound: COc1cc2ncnc(-n3nc(-c4ccccn4)nc3N)c2cc1OC [CP466722]; conditions: top dose 16 µM; top dose inferred
Experimental: as §1

Zibotentan = compound: COc1nc(C)cnc1NS(=O)(=O)c1cccnc1-c1ccc(-c2nnco2)cc1 [Zibotentan]; conditions: top dose 20 µM; top dose inferred
Experimental: as §1

ABT-888 = compound: C[C@]1(c2nc3c(C(N)=O)cccc3[nH]2)CCCN1 [ABT-888]; conditions: top dose 5 µM; top dose inferred
Experimental: as §1

CMK = compound: Cc1ccc(-c2c(C(=O)CCl)n(CCCO)c3ncnc(N)c23)cc1 [CMK]; conditions: top dose 4 µM; top dose inferred
Experimental: as §1

ABT-869 = compound: Cc1ccc(F)c(NC(=O)Nc2ccc(-c3cccc4[nH]nc(N)c34)cc2)c1 [ABT-869]; conditions: top dose 1.024 µM; top dose inferred
Experimental: as §1

CHIR-99021 = compound: Cc1cnc(-c2cnc(NCCNc3ccc(C#N)cn3)nc2-c2ccc(Cl)cc2Cl)[nH]1 [CHIR-99021]
Experimental: as §1

Cytarabine = compound: Nc1ccn([C@@H]2O[C@H](CO)[C@@H](O)[C@@H]2O)c(=O)n1 [Cytarabine]; conditions: top dose 2 µM
Experimental: as §1

KU-55933 = compound: O=c1cc(-c2cccc3c2Sc2ccccc2S3)oc(N2CCOCC2)c1 [KU-55933]; conditions: top dose 10 µM
Experimental: as §1

[1] = top dose 2.5 µM, screen: GDSC drug entry 127
[2] = top dose 5 µM, screen: GDSC drug entry 1192
[3] = top dose 2.56 µM, screen: GDSC drug entry 154
[4] = top dose 10 µM, screen: GDSC drug entry 1241, top dose inferred

| Cell Line | AUC (Thapsigargin) | pIC50 (Thapsigargin) | AUC (QL-X-138) | pIC50 (QL-X-138) | AUC (GSK269962A; [1]) | pIC50 (GSK269962A; [1]) | AUC (GSK269962A; [2]) | pIC50 (GSK269962A; [2]) | AUC (MPS-1-IN-1) | pIC50 (MPS-1-IN-1) | AUC ((5Z)-7-Oxozeaenol) | pIC50 ((5Z)-7-Oxozeaenol) | AUC (CP466722) | pIC50 (CP466722) | AUC (Zibotentan) | pIC50 (Zibotentan) | AUC (ABT-888) | pIC50 (ABT-888) | AUC (CMK) | pIC50 (CMK) | AUC (ABT-869) | pIC50 (ABT-869) | AUC (CHIR-99021; [3]) | pIC50 (CHIR-99021; [3]) | AUC (CHIR-99021; [4]) | pIC50 (CHIR-99021; [4]) | AUC (Cytarabine) | pIC50 (Cytarabine) | AUC (KU-55933) | pIC50 (KU-55933) |
| --- | --- | --- | --- | --- | --- | --- | --- | --- | --- | --- | --- | --- | --- | --- | --- | --- | --- | --- | --- | --- | --- | --- | --- | --- | --- | --- | --- | --- | --- | --- |
| GT3TKB (stomach, adherent) | 0.373 | 7.82 | 0.886 | 5.05 | 0.868 | 5.74 | 0.757 | 5.82 | 0.968 | < 4.70 | 0.557 | 6.06 | 0.963 | < 4.80 | 0.989 | < 4.70 | 0.99 | < 5.30 | 0.972 | < 5.40 | 0.99 | < 5.99 | 0.989 | < 5.59 | 0.762 | 5.50 | 0.707 | 6.36 | 0.901 | < 5.00 |
| HA7-RCC (kidney, adherent) | 0.68 | 6.97 | 0.895 | < 4.99 | 0.968 | < 5.60 | 0.929 | < 5.30 | 0.882 | < 4.70 | 0.735 | 5.50 | 0.87 | < 4.80 | 0.981 | < 4.70 | 0.98 | < 5.30 | 0.865 | < 5.40 | 0.98 | < 5.99 | 0.985 | < 5.59 | 0.901 | < 5.00 | 0.764 | 6.10 | 0.934 | < 5.00 |
| HAL-01 (lymphoblastic leukaemia, suspension) | 0.857 | 6.47 | 0.544 | 6.08 | 0.872 | 5.72 | 0.811 | 5.64 | 0.836 | 4.95 | 0.584 | 5.99 | 0.517 | 5.95 | 0.963 | < 4.70 | 0.973 | < 5.30 | 0.921 | < 5.40 | 0.989 | < 5.99 | 0.984 | < 5.59 | 0.89 | 5.03 | 0.321 | 7.37 | 0.857 | 5.18 |
| HCC1187 (breast, suspension) | 0.791 | 6.66 | 0.845 | 5.16 | 0.955 | < 5.60 |  |  | 0.938 | < 4.70 | 0.803 | 5.33 | 0.758 | 5.27 | 0.988 | < 4.70 | 0.984 | < 5.30 | 0.97 | < 5.40 | 0.981 | < 5.99 | 0.972 | < 5.59 | 0.825 | 5.25 | 0.957 | < 5.70 | 0.957 | < 5.00 |
| HCC2157 (breast, suspension) | 0.228 | 8.31 | 0.783 | 5.34 | 0.987 | < 5.60 | 0.984 | < 5.30 | 0.986 | < 4.70 | 0.796 | 5.30 | 0.963 | < 4.80 | 0.987 | < 4.70 | 0.987 | < 5.30 | 0.965 | < 5.40 | 0.987 | < 5.99 | 0.987 | < 5.59 | 0.98 | < 5.00 | 0.926 | < 5.70 | 0.868 | 5.01 |
| HCC2218 (breast, suspension) | 0.588 |  | 0.567 | 5.99 | 0.956 | < 5.60 | 0.82 | 5.41 | 0.917 | < 4.70 | 0.868 | < 5.00 | 0.837 | 4.83 | 0.959 | < 4.70 | 0.982 | < 5.30 | 0.906 | < 5.40 | 0.978 | < 5.99 | 0.969 | < 5.59 | 0.968 | < 5.00 | 0.984 | < 5.70 | 0.974 | < 5.00 |
| HD-MY-Z (Hodgkin lymphoma, adherent) | 0.404 |  | 0.586 | 5.96 | 0.973 | < 5.60 | 0.82 | 5.54 | 0.926 | < 4.70 | 0.58 | 5.99 | 0.718 | 5.38 | 0.98 | < 4.70 | 0.967 | < 5.30 | 0.805 | 5.69 | 0.977 | < 5.99 | 0.984 | < 5.59 | 0.872 | 5.02 | 0.729 | 6.25 | 0.982 | < 5.00 |
| HDLM-2 (Hodgkin lymphoma, suspension) | 0.719 | 6.88 | 0.902 | < 4.99 | 0.977 | < 5.60 | 0.876 | 5.32 | 0.989 | < 4.70 | 0.773 | 5.42 | 0.618 | 5.68 | 0.989 | < 4.70 | 0.982 | < 5.30 | 0.939 | < 5.40 | 0.987 | < 5.99 | 0.987 | < 5.59 | 0.987 | < 5.00 | 0.948 | < 5.70 | 0.967 | < 5.00 |
| HH (T-cell leukaemia, suspension) | 0.664 | 6.97 | 0.476 | 6.27 | 0.965 | < 5.60 | 0.62 | 6.13 | 0.914 | < 4.70 | 0.638 | 5.77 | 0.68 | 5.42 | 0.963 | < 4.70 | 0.958 | < 5.30 | 0.948 | < 5.40 | 0.978 | < 5.99 | 0.959 | < 5.59 | 0.975 | < 5.00 | 0.836 | < 5.70 | 0.838 | < 5.00 |
